Hit rate of the full screen: of about 43,000 compounds, about 200 (0.47%) were called active. Another 12% or so got no clear call; they are omitted. The call rests on the fitted dose curve; in most records, active means well fitted cell-killing curve with a large enough effect; inconclusive means small, poorly fitted or top-dose-only effect, or effect the other way; inactive means flat fitted curve, though single readings scatter. The list shows a part of the results.
Assay: Cell viability qHTS assay in S16 Pmp22-F2sN cells; further: nearly all actives have a fitted effect of over 65% in size
Settings: S16 Pmp22-F2sN Schwann cells viability, CellTiter-Glo, 24 h; series mostly up to 57.5 µM; activity change, negative = cytotoxicity: at the top concentration
How it was run: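 Used to flag compounds lowering reporter output through toxicity, this quantitative HTS measures ATP-based CellTiter-Glo luminescence in S16 Pmp22-F2sN Schwann cells after 24 h compound exposure at 37C.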
On the % scale 0 is the no-effect control and ±100 the full control effect; potency means the concentration at half of the fitted maximal effect.

SMILES	activity change, negative = cytotoxicity	Potency
CCOc1ccc(NC(=O)Cn2ncc3c2-c2cc(C)ccc2OC3)cc1	inactive: -0.309%	
CCC(=O)N1CCc2cc(Br)cc(S(=O)(=O)CCC(=O)NCc3ccccc3OC)c21	inactive: -2.34%	
CCOC(=O)c1[nH]c(C)c(CCC(=O)N2CCN(c3cccc(OC)c3)CC2)c1C	inactive: 5.52%	
COc1ccc(CCNC(=O)C(=O)Nc2ccccc2F)cc1	inactive: -3.59%	
COc1ccccc1C(=O)NCCn1cc(SCC(=O)Nc2ccccc2F)c2ccccc21	inactive: 15.5%	
Cc1ccc(CNC(=O)C(=O)Nc2c3c(nn2-c2ccccc2)CSC3)cc1	inactive: -24.6%	
COc1ccc(C(=O)N2c3ccccc3C(C)(c3ccc(Cl)cc3)CC2(C)C)cc1 (configuration not stated)	inactive: -9.07%	
COc1ccc(CCNC(=O)c2c(O)nc3c(C)cccn3c2=O)cc1	inactive: 3.69%	
Cc1ccc(-c2onc(C)c2C)cc1S(=O)(=O)N1c2ccccc2CC1C (configuration not stated)	inactive: -11.7%	
O=S1(=O)c2ccccc2N(Cc2cccc(C(F)(F)F)c2)c2ccccc21	inactive: -15.7%	
Cc1cccc(NC(=O)Cn2c(=O)n(CCCS(=O)(=O)C3CCCCC3)c(=O)c3ccccc32)c1	inactive: 9.09%	
CCOCCCNC(=O)c1[nH]c2cc(C)ccc2c1Sc1ccc(Cl)cc1	inactive: -1.15%	
O=C(NCCn1cc(SCc2ccc(Cl)cc2)c2ccccc21)c1cccs1	inactive: 18.1%	
COc1cc(OC)c(N(C)C(=O)CCNC(=O)Cn2cnc3ccccc3c2=O)cc1Cl	inactive: 14.5%	
CN(C)CCNC(=O)Cn1c(=O)c2cccn2c2ccc(F)cc21	inactive: 9.41%	
CCOCCc1nn2c(=O)cc(COC(=O)c3ccccc3NC(=O)C3CCCCC3)nc2s1	inactive: -3.91%	
C#CCSc1nc2sc3c(c2c(=O)n1Cc1ccccc1)CCCC3	inactive: 20.1%	
COc1ccc(NC(=O)c2sc3nc(-c4ccc(OC)cc4)cc(C(F)(F)F)c3c2N)cc1	inactive: 4.44%	
Cc1ccc(C)c(CN2C(=O)c3ccccc3S(=O)(=O)c3ccc(C(=O)N4CCN(c5ccccc5)CC4)cc32)c1	inactive: 2.28%	
Cc1ccccc1Nc1c(-c2ccco2)nc2c(C)cccn12	inactive: -9.31%	
Cc1ccc(NC(=O)CCS(=O)(=O)c2cccc3nonc23)cc1Cl	inactive: -19.5%	
Cc1ccc(CS(=O)(=O)c2ncc(Cl)c(C(=O)Nc3nc4ccc(C)cc4s3)n2)cc1		active: 20 µM
Cc1n[nH]c(C)c1S(=O)(=O)N(CC(=O)Nc1ccc(C(F)(F)F)cc1)c1ccc(C(C)C)cc1	inactive: -17.6%	
Oc1c(C(c2ccc(Cl)cc2)N2CCC3(CC2)OCCO3)sc2nc(-c3ccco3)nn12 (configuration not stated)	inactive: -0.306%	

SMILES	activity change, negative = cytotoxicity	Potency
O=C(Cn1c(=O)oc2ccccc21)Nc1ccc(C(=O)O)cc1	inactive: -0.167%	
COc1cc(NC(=O)c2cccc3c2C(=O)N(C2CCCCC2)C3)cc(OC)c1	inactive: 17.8%	
CCn1c(=O)c(C(=O)Nc2ccc(C(C)=O)cc2)nc2ccccc21	inactive: -5.72%	
CCOc1ccccc1NC(=O)CSc1nc2cc(OC)c(OC)cc2c2nc(-c3ccccc3)nn12	inactive: 0.79%	
Cn1c(NCCO)nc2c1c(=O)n(Cc1cccc(F)c1)c(=O)n2C	inactive: 0.244%	
COc1cccc(/C=C/c2nc(C#N)c(NCCc3ccc(OC)c(OC)c3)o2)c1	inactive: -0.305%	
COC(=O)c1ccc2c(c1)N(Cc1ccc(F)cc1)C(=O)c1ccccc1S2	inactive: 6.05%	
CCCCN(CCCC)S(=O)(=O)c1ccc2oc(C(=O)NCc3ccc(C)cc3)c(C)c2c1	inactive: -17.6%	
CCCCN1C(=O)C(O)(c2c[nH]c3ccccc23)c2cc(Br)ccc21 (configuration not stated)	inactive: -9%	
CCc1ccc(-c2[nH]c3c(c2-c2sc(C)c(C(=O)OC)c2O)c(=O)[nH]c(=O)n3C)cc1	inactive: -3.66%	
Cc1nn(C(=O)c2ccc(Br)cc2)c(C)c1S(=O)(=O)N1CCOCC1	inactive: -3.92%	
Cc1coc2c(C)c3oc(=O)c(CCC(=O)NCCc4ccccc4)c(C)c3cc12	inactive: 8.27%	
COc1ccc(-c2cc(C(F)(F)F)nc(SCCC(=O)Nc3cc(C)ccc3O)n2)cc1	inactive: 11.9%	
Cc1ccc(NC(=O)Cn2c(=O)n(Cc3ccco3)c(=O)c3sc4ccccc4c32)cc1C	inactive: -1.22%	
CCOc1ccc(CCNC(=O)c2cnc3c(-c4ccc(F)cc4)c(C)nn3c2C)cc1OCC	inactive: -1.21%	
COc1ccc2c(c1)sc1ncc(C(=O)NCc3ccc(OC(C)C)cc3)c(=O)n12	inactive: 10.2%	
COc1cc(Cl)c(C)cc1NC(=O)c1cn(C2CCCC2)c(=O)c2c1c1ccccc1n2C	inactive: -5.08%	
COc1ccc(C(=O)Nc2ccc3nc(N4CCC(C)CC4)cc(C)c3c2)cc1	inactive: 13.7%	
CCOc1ccc(-c2nnc(SCC(=O)NCCc3ccc(OC)c(OC)c3)nc2-c2ccc(OCC)cc2)cc1	inactive: 14.5%	
O=C(Nc1cccc(OCc2cc(=O)n3c4c(sc3n2)CCCC4)c1)c1ccc(F)cc1	inactive: 2.52%	
Cc1ccccc1-c1noc(CCC(=O)Nc2cccc(C)c2C)n1	inactive: -10.1%	
Cc1ccc2nc(-c3cc(NC(=O)/C=C/c4ccccc4)ccc3Cl)oc2c1	inactive: 12.7%	
CCOCCCNC(=O)C(Cc1ccccc1)NS(=O)(=O)c1ccc2c(c1)c(=O)n(C)c(=O)n2C (configuration not stated)	inactive: -0.142%	

— PubChem BioAssay AID1508642 (National Center for Advancing Translational Sciences (NCATS), 2021)
